Patent US20140017253A1 (ONCOMED PHARMACEUTICALS, published 2014)

Target: T1, human RSPO3 (recombinant, R&D Systems) (human, UniProt Q9BXY4 22-272)
T1 sequence: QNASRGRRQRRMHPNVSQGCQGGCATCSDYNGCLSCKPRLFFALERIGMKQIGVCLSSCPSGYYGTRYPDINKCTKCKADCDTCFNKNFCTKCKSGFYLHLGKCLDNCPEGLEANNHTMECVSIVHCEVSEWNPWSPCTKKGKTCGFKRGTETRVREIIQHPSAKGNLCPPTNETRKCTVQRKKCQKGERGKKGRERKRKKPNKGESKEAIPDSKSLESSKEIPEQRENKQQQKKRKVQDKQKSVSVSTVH
Assay: SPR (Biacore 2000), antibody captured by goat anti-human IgG on CM5 chip, human RSPO3 injected 300-37.5 nM
Procedure: The method used was different than described in Example 3. A goat anti-human IgG antibody was coupled to a carboxymethyl-dextran (CM5) SPR chip using standard amine-based chemistry (NHS/EDC) and blocked with ethanolamine. Antibodies (purified antibody or culture supernatant) were diluted to a concentration of 10 μg/ml in HBS-P-BSA (0.01M HEPES pH7.4, 0.15M NaCl, 0.005% v/v Polysorbate 20, 100 μg/ml BSA) and captured onto the chip via the anti-human IgG antibody. […] After each antigen injection 5 μl of 100 mM H₃PO₄ was injected to remove the antigen-antibody complex and a subsequent injection performed. Kinetic data were collected over time and were fit using the simultaneous global fit equation to yield affinity constants (KD values) for each antibody (Table 4).

B1: humanized anti-RSPO3 antibody h131R008 (antibody, human IgG1, kappa)
heavy: QVQLVQSGAEVKKPGASVKVSCKASGYTFTDYSIHWVRQAPGQGLEWIGYIYPSNGDSGYNQKFKNRVTMTRDTSTSTAYMELSRLRSEDTAVYYCATYFANNFDYWGQGTTLTVSSASTKGPSVFPLAPSSKSTSGGTAALGCLVKDYFPEPVTVSWNSGALTSGVHTFPAVLQSSGLYSLSSVVTVPSSSLGTQTYICNVNHKPSNTKVDKRV[… human IgG1 Fc …]
light: DIVLTQSPASLAVSLGQRATITCKASQSVDYDGDSYMNWYQQKPGQPPKLLIYAASNLESGIPARFSGSGSGTDFTLTINPVEAEDVATYYCQQSNEDPLTFGAGTKLELKRTVAAPSVFIFPPSDEQLKSGTASVVCLLNNFYPREAKVQWKVDNALQSGNSQESVTEQDSKDSTYSLSSTLTLSKADYEKHKVYACEVTHQGLSSPVTKSFNRGEC
notes: IgG1; also called h131R008 (IgG1)
Q: B1 was tested. Which Kd did it give?
A: Its Kd is 876 pM.
